{"source": "PubChem BioAssay AID686979", "about": "(National Center for Advancing Translational Sciences (NCATS), 2013)", "note": "The campaign covered roughly 420,000 compounds. About 50,000 (12%) were called active. Inconclusive results, whose numbers are uncertain, are shown with a selection of clear calls. Calls follow the shape of the dose curve; as a rule, active = well fitted inhibition curve with a large enough effect; inconclusive = small, poorly fitted or top-dose-only effect; inactive = flat fitted curve, though single readings scatter. No potency is given beside an inconclusive call; the fits are too rough. % is scaled to controls: 0 for no effect and ±100 for the full control effect; potency is read from the fitted curve at half-maximal effect; tags tell the direction and shape of the fitted curve."}
{"assay": "qHTS for Inhibitors of human tyrosyl-DNA phosphodiesterase 1 (TDP1): qHTS in cells in presence of CPT; also: nearly all actives have a fitted effect of over 55% in size", "conditions": "chicken DT40 Tdp1-/-;hTDP1 cells + 20 nM CPT, ATP luminescence, 48 h; activity change, negative = growth inhibition: at 46.2 µM (top of the series)", "how_it_was_run": "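Chicken DT40 Tdp1-/- cells stably complemented with human TDP1 were seeded at 400 cells/well in medium containing 20 nM camptothecin, exposed to pin-transferred compounds, and grown at 37 °C for at least 48 hr. Viability was read as ATP luminescence.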"}
{"smiles": "CCC1CCC(C(=O)NC(C(=O)NCCCN2CCCCC2C)C(C)C)CC1", "note": "(stereo unspecified)", "Potency": "inactive"}
{"smiles": "CC(C)=CCCC1(C)C=Cc2c(c(C)cc3c2[nH]c2cc(O)ccc23)O1", "note": "(stereo unspecified)", "Potency": "inconclusive [inhibitor, single point]"}
{"smiles": "O=C(COc1coc(CN2CCc3ccccc3C2)cc1=O)Nc1ccc([N+](=O)[O-])cc1", "Potency": "inconclusive [inhibitor, partial curve, poor fit]"}
{"smiles": "N#CCCN(Cc1ccccc1)C(C(=O)NC1CCCCC1)c1ccnc2ccccc12", "note": "(stereo unspecified)", "Potency": "inconclusive [inhibitor, single point]"}
{"smiles": "CCCC(=O)N1CCCC(c2nc(-c3cccc(OC)c3)no2)C1", "note": "(stereo unspecified)", "Potency": "inconclusive [inhibitor, single point]"}
{"smiles": "COc1cccc(S(=O)(=O)N(C)C[C@@H]2OCc3cnnn3CCCC(=O)N([C@H](C)CO)C[C@@H]2C)c1", "Potency": "inactive"}
{"smiles": "COc1ccc(-c2nc3ccccn3c2/N=C/c2ccc(OC)c(OC)c2)cc1O", "Potency": "inactive"}
{"smiles": "CN1CCN(c2ccc(Cl)cc2NC(=O)CCN2C(=O)c3ccccc3C2=O)CC1", "Potency": "inactive"}
{"smiles": "CCc1ccccc1N1C(=O)N(C)c2ccccc2S1(=O)=O", "Potency": "inactive"}
{"smiles": "CCN(Cc1ccccc1)C(=O)COC(=O)c1cnc(C)cn1", "Potency": "inactive"}
{"smiles": "Cc1cccc(-n2c(SCC(=O)Nc3ccccc3C)nc3c(oc4ccccc43)c2=O)c1", "Potency": "active: 7.31 µM"}
{"smiles": "Cc1csc(NC(=O)C(C)Oc2ccc(Br)cc2)n1", "note": "(stereo unspecified)", "Potency": "inactive"}
{"smiles": "Cc1ccc(S(=O)(=O)NC(N)=NCCc2ccc(Cl)cc2)cc1", "Potency": "inconclusive [inhibitor, single point]"}
{"smiles": "CC1=C(C(=O)Nc2ccccc2)C(c2ccco2)NC(=S)N1", "note": "(stereo unspecified)", "Potency": "inactive"}
{"smiles": "COc1ccc(CC(=O)Nc2nc(-c3ccc(F)c(F)c3)cs2)cc1", "Potency": "active: 20.6 µM"}
{"smiles": "CN(C)C(=O)N=NC(=O)N(C)C", "Potency": "inconclusive [inhibitor, single point]"}
{"smiles": "Cc1ccccc1S(=O)(=O)Cc1ccc(C(=O)N2CC(C)CC(C)C2)o1", "note": "(stereo unspecified)", "Potency": "inconclusive [inhibitor, single point]"}
{"smiles": "COc1ccccc1OCCNC(=O)c1cccc(S(=O)(=O)N2CCN(Cc3ccccc3)CC2)c1", "Potency": "active: 18.4 µM"}
{"smiles": "Cc1cc(C)cc(NC(=O)c2ccc(Cn3nc(C)c(Cl)c3C)o2)c1", "activity change, negative = growth inhibition": "inconclusive: -31.2% [inhibitor]"}
{"smiles": "O=C1Nc2ccc([N+](=O)[O-])cc2C1=Nc1cccc(CO)c1", "Potency": "active: 16.4 µM"}
{"smiles": "COc1ccccc1CNC(=O)c1cc(-c2cccnc2)nc2ccccc12", "Potency": "inconclusive [inhibitor, single point]"}
{"smiles": "COc1ccc(C(=O)Nc2ccc3[nH]ccc3c2)cc1", "Potency": "inconclusive [inhibitor, single point]"}
{"smiles": "Cc1c(Nc2scc(-c3ccccc3)[n+]2-c2ccccc2)c(=O)n(-c2ccccc2)n1C", "Potency": "inconclusive [inhibitor, single point]"}
{"smiles": "COc1ccc(C(=O)NCCS(=O)(=O)N2CCc3ccccc3C2)c(OC)c1", "Potency": "inconclusive [inhibitor, single point]"}
{"smiles": "CCCc1ccc(OCc2ccc(C(=O)Nc3cccc(C)n3)o2)c(OC)c1", "Potency": "inconclusive [inhibitor, single point]"}
{"smiles": "COc1ccc(CCNC(=O)c2cccc(NC(=O)CC3SC(N4CCCCC4)=NC3=O)c2)cc1OC", "note": "(stereo unspecified)", "Potency": "inconclusive [inhibitor, single point]"}
{"smiles": "COc1ccc(C(=O)Nc2ccc(N3CCN(C(=O)c4ccccc4C)CC3)cc2)cc1", "Potency": "active: 8.2 µM"}
{"smiles": "O=C1[C@@H]2[C@@H](CN3CN(c4ccccc4)N=C(c4ccccc4)[C@@]23c2ccccc2)C(=O)N1c1ccccc1", "Potency": "active: 5.8 µM"}
{"smiles": "Cc1ccc(C)c(NC(=O)CCc2ccc(S(=O)(=O)NC3CCCCC3)cc2)c1", "Potency": "inconclusive [inhibitor, single point]"}
{"smiles": "CSc1nn(Cc2ccc(F)cc2)c(N)c1S(=O)(=O)c1ccc(Cl)cc1", "Potency": "inconclusive [inhibitor, single point]"}
{"smiles": "CC1CN(S(=O)(=O)N2CCOCC2)CCN1S(=O)(=O)N1CCOCC1", "note": "(stereo unspecified)", "Potency": "inactive"}
{"smiles": "Nc1ncnc2c1ncn2[C@@H]1O[C@H](CNCc2ccccc2OCC(=O)N2CCCCC2)[C@@H](O)[C@H]1O", "Potency": "inactive"}
{"smiles": "Cc1ccc(C(=O)Nc2nc(C)c(C)s2)o1", "Potency": "inconclusive [inhibitor, partial curve]"}
{"smiles": "CCOC(=O)C1(CC2CCCCO2)CCN(Cc2nc(-c3cccs3)oc2C)CC1", "note": "(stereo unspecified)", "Potency": "inconclusive [inhibitor, single point]"}
{"smiles": "CCN(CCn1cccn1)Cc1ccccc1OCC(O)CN1CCc2ccccc2C1", "note": "(stereo unspecified)", "Potency": "inconclusive [inhibitor, single point]"}
{"smiles": "COc1ccccc1NC(=O)NNC(=O)c1ccc2c(c1)NC(=O)C(C)(C)O2", "Potency": "active: 23.1 µM"}
{"smiles": "COc1ccc(CCCc2nnc(SCc3nc4ccccc4c(=O)[nH]3)n2C)cc1C", "Potency": "inconclusive [inhibitor, single point]"}
{"smiles": "CCCn1nnnc1NC(=O)COc1ccc(Cl)cc1C", "Potency": "inconclusive [inhibitor, single point]"}
{"smiles": "CCCCCCCCCCCCCCCCO", "Potency": "inactive"}
{"smiles": "O=C1COc2ccc(-c3cc(-c4ccc(F)cc4)c4c(n3)-c3ccccc3OC4)cc2N1", "Potency": "active: 6.51 µM"}
{"smiles": "COc1cc(CC2COC(c3ccc(O)c(OC)c3)C2COC(C)=O)ccc1O", "note": "(stereo unspecified)", "Potency": "inactive"}
{"smiles": "O=C(Cn1nnc2ccccc21)NNC(=O)c1ccccc1", "Potency": "inactive"}
{"smiles": "O=C(c1ccc(N2CCN(C3CC(=O)N(Cc4cccs4)C3=O)CC2)cc1)c1cccnc1", "note": "(stereo unspecified)", "Potency": "active: 16.4 µM"}
{"smiles": "Nc1cccc(Nc2nc(OC(C(F)(F)F)C(F)(F)F)nc(OC(C(F)(F)F)C(F)(F)F)n2)c1", "Potency": "active: 20.6 µM"}
{"smiles": "CCN(C(=O)c1ccc2c(=O)n3c(nc2c1)CCCCC3)c1cc(C)ccc1C", "Potency": "inconclusive [inhibitor, single point]"}
{"smiles": "CNc1ccc(/C=C2\\C=Cc3ccccc32)cc1", "Potency": "inconclusive [inhibitor, partial curve, poor fit]"}
